The source of these data is PubChem BioAssay AID1963576 (National Center for Advancing Translational Sciences (NCATS), 2024).

The whole screen tested about 46,000 compounds, of which about 60 (0.1%) were called active. Inconclusive results (about 3%) are left out. Calls follow the shape of the dose curve; as a rule, active = well fitted inhibition curve with a large enough effect; inconclusive = small, poorly fitted or top-dose-only effect; inactive = no such curve, though single readings can be large or run the other way. The list shows a part of the results.

This assay can be described thus: Primary qHTS assay for Inhibitors of ovarian cancer metastasis using an organotypic tumor microenvironment (TME) model. Also: nearly all actives have a fitted effect of over 65% in size.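 As to activity change, negative = inhibition: plate controls were DMSO wells for no effect and tomatine positive control wells for full effect.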 The conditions noted are these: SKOV3ip1-GFP adhesion/invasion on 3D omental model, fluorescence; series mostly up to 45.8 µM; activity change, negative = inhibition: at the top concentration. Summed up:
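Primary human omental fibroblast/mesothelial 3D culture pre-formed 48 h. SKOV3ip1-GFP cells added with compounds (0.36-46 umol/L), incubated 2 h RT/16 h 37 C, fixed; GFP cells quantified at 488/509 nm.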
Take `COc1ccc(CNC(=O)CCCn2nc(C)c3c(C)n(-c4ccccc4)nc3c2=O)cc1`: the “activity change, negative = inhibition” value was inactive: -8%.

`Cc1ccc(-n2c(-c3ccco3)nc3c(cnn3-c3ccccc3Cl)c2=O)cc1`: the result was inactive.

In the case of `Cc1cccc(C(=O)Nc2nnc(S(=O)(=O)N(C)c3ccccc3C)s2)c1`, the molecule was called inactive.

Consider `CCN(C(=O)CSc1nc(-c2ccc(C(C)C)cc2)no1)c1cccc(C)c1`, for which the result was inactive.

Take `CN(C)Cc1ccc(-c2nc3cccc4c3n2CCNC4=O)cc1`: the “activity change, negative = inhibition” value was inactive: 2.56%.

For `CCCN(CCC)S(=O)(=O)c1ccc(C(=O)Nc2sc3c(c2C(=O)OC)CCN(CC)C3)cc1`, the “activity change, negative = inhibition” value was inactive: -6.69%.

For the molecule `CSc1ccc(C2c3c(oc4cc(C)cc(C)c4c3=O)C(=O)N2Cc2ccco2)cc1` (configuration not stated), the outcome was inactive.

As to `Cc1cc(C)cc(OC(C)C(=O)Nc2c(C(=O)c3ccccc3)oc3ccccc23)c1` (configuration not stated), the molecule was classed as inactive.

Consider `O=C(Nc1cccc(C(F)(F)F)c1)C1CCCN1S(=O)(=O)c1cccc2nsnc12` (configuration not stated), for which the “activity change, negative = inhibition” value is inactive: 0.52%.

On to `c1ccc(CSc2nc3ncccc3[nH]2)cc1`, for which the “activity change, negative = inhibition” value was inactive: 4.34%.

In the case of `Cc1ccc(CCNC(=O)c2ccc3c(c2)N(Cc2cccc(Cl)c2)C(=O)c2ccccc2S3(=O)=O)cc1`, the “activity change, negative = inhibition” value is inactive: -5.39%.

Regarding `COc1ccc(-n2nc(C)c3c(C(F)(F)F)cc(-c4cccnc4)nc32)cc1`, the “activity change, negative = inhibition” value is inactive: -4.5%.

Turning to `Cc1cn2c(=O)cc(COC(=O)c3cccc(NC(=O)c4ccccc4C)c3)nc2s1`, the “activity change, negative = inhibition” value was inactive: 18.9%.

As to `COc1ccc(C(=O)COC(=O)C(Cc2c[nH]c3ccccc23)NC(=O)c2ccc(C(C)(C)C)cc2)cc1` (configuration not stated), the “activity change, negative = inhibition” value is inactive: -1.25%.

In the case of `O=C1c2[nH]nc(-c3ccccc3O)c2C(c2cccc(OCc3ccccc3)c2)N1CCO` (configuration not stated), the “activity change, negative = inhibition” value was inactive: -4.02%.

Consider `COc1ccc(CCNC(=O)C(=O)NCC(c2cccs2)S(=O)(=O)c2ccc(C)cc2)cc1` (configuration not stated), for which the “activity change, negative = inhibition” value was inactive: -8.15%.

`CCN(CC)C(=O)Cn1c(=O)n(-c2ccc(Cl)cc2)c(=O)c2c3c(sc21)CCC3`: the “activity change, negative = inhibition” value is inactive: 1.16%.

For `CCOC(=O)c1c(C)[nH]c(C)c1S(=O)(=O)N1CCN(c2cccc(C(F)(F)F)c2)CC1`, the “activity change, negative = inhibition” value is inactive: -7.76%.

Regarding `Cc1ccc(S(=O)(=O)N2CCC(C(=O)Nc3ccc(C)c(Cl)c3)CC2)cc1`, the “activity change, negative = inhibition” value is inactive: -13.4%.

In the case of `COc1cccc(N2CCN(C(=O)CCS(=O)(=O)c3ccc4c(c3)oc(=O)n4C)CC2)c1`, the “activity change, negative = inhibition” value is inactive: 8.42%.

With `COCCCNC(=O)C1CCN(c2nc3ccc(C)cc3[nH]2)CC1`, the “activity change, negative = inhibition” value was inactive: -11.5%.

With `CC1(C)NC(=O)N(c2ccc([N+](=O)[O-])c(C(F)(F)F)c2)C1=O`, the “activity change, negative = inhibition” value was inactive: -0.199%.

In the case of `CCOC(=O)c1cc(OC(=O)c2ccccc2C)n(-c2ccccc2)n1`, the outcome was inactive.

On to `Cc1cc2oc(=O)cc(C)c2c2occ(-c3ccc(Cl)cc3)c12`, for which the “activity change, negative = inhibition” value is inactive: 2.64%.

Take `COc1ccc(C(=O)Nc2ccc(-n3nncc3-c3ccccc3)cc2)cc1OC`: the molecule was called inactive.

`Cc1cccc(N2CCN(C(=O)Cn3ncc4c5ccccc5n(C)c4c3=O)CC2)c1C`: the “activity change, negative = inhibition” value was inactive: 6.26%.

`COc1cc(OC)cc(-c2cc3nc(C)c(CCC(=O)NCc4ccc(Cl)cc4)c(C)n3n2)c1`: the “activity change, negative = inhibition” value was inactive: -1.54%.

As for `Cc1ccc(-n2nc(CO)c(C(=O)NCc3cccnc3)n2)cc1`, the molecule was classed as inactive.

Regarding `CCc1ccc(S(=O)(=O)c2cn(Cc3ccccc3)c3cc(F)c(F)cc3c2=O)cc1`, the “activity change, negative = inhibition” value is inactive: 5.7%.

`CCc1ccccc1Nc1nc2ccccc2c2nncn12`: the “activity change, negative = inhibition” value is inactive: 2.3%.

Regarding `COc1ccc(OC)c(CNC(=O)C2CCN(c3nc4ccccc4nc3C(F)(F)F)CC2)c1`, the molecule was called inactive.

As for `Cc1ccc2[nH]c3c(=O)n(CC(=O)N4CCCCC4)ncc3c2c1`, the “activity change, negative = inhibition” value was inactive: 12.1%.

On to `Clc1ccc(C(c2ccccc2)c2c[nH]c3ccccc23)s1` (configuration not stated), for which the “activity change, negative = inhibition” value was inactive: 6.11%.

With `CCCCNC(=O)CCCn1c(=O)c2ccccc2n(Cc2cccc(Cl)c2)c1=O`, the “activity change, negative = inhibition” value was inactive: 6.15%.

As for `Cn1c(CN2CCCCC2)nc2cc(NC(=O)c3ccccc3Cl)ccc21`, the “activity change, negative = inhibition” value was inactive: -10.3%.

On to `CCCCc1c(C)nc2c(-c3ccc(OC)cc3)c(C)[nH]n2c1=O`, for which the molecule was classed as inactive.

In the case of `COc1ccccc1NC(=O)CSc1ncc2c(n1)-c1cc(Cl)ccc1N(Cc1ccccc1)S2(=O)=O`, the molecule was called inactive.

For the molecule `Cc1ccc(OCC(=O)Nc2ccc3nc(SCC(=O)N4CCOCC4)sc3c2)cc1`, the result was inactive.

Turning to `O=C(C1CCN(S(=O)(=O)Cc2ccccc2)CC1)N1CCN(c2ccccc2)CC1`, the result was inactive.

For the molecule `CCOC(=O)c1cccc(NS(=O)(=O)c2ccc(-c3cnc(C4CC4)o3)cc2)c1`, the outcome was inactive.

In the case of `NC(=O)c1nc(Nc2ccccc2)sc1NC(=O)c1ccccc1Br`, the “activity change, negative = inhibition” value was inactive: 20.5%.

On to `O=C(NC1CCCC1)c1cc(Nc2cccc(C(F)(F)F)c2)nc2ccccc12`, for which the “activity change, negative = inhibition” value is inactive: -6.4%.

On to `CCC(=O)N1CCc2cc(Br)cc(S(=O)(=O)CCC(=O)N3CCN(c4ccccc4F)CC3)c21`, for which the “activity change, negative = inhibition” value is inactive: 7.32%.

Take `COc1ccc2nc(NC(=O)c3nc(SC(C)C)ncc3Cl)sc2c1`: the “activity change, negative = inhibition” value was inactive: -14.7%.

With `Cc1cccc(NC(=O)C2CCC(CNS(=O)(=O)c3csc(C(N)=O)c3)CC2)c1C` (configuration not stated), the “activity change, negative = inhibition” value was inactive: 9.02%.

In the case of `Cc1ccc(S(=O)(=O)c2nc(S(C)(=O)=O)sc2N(C)Cc2ccccc2)cc1`, the “activity change, negative = inhibition” value was inactive: -4.32%.

On to `CCOC(=O)c1cccc(NC(=O)c2cc3c(-c4cccc(OC)c4)nn(C)c3s2)c1`, for which the result was inactive.
